# Experimental data reported in PubChem BioAssay AID651820 (National Center for Advancing Translational Sciences (NCATS), 2012).
# Hit rate of the full screen: of about 340,000 compounds, about 12,000 (3.5%) were called active. Inconclusive results, whose numbers are uncertain, are shown with a selection of clear calls. The call rests on the fitted dose curve; in most records, active means well fitted inhibition curve with a large enough effect; inconclusive means small, poorly fitted or top-dose-only effect, or another doubt; inactive means no such curve, though single readings can be large or run the other way. Potencies of inconclusive entries are left out as doubtful fits.
# Assay: qHTS Assay for Inhibitors of Hepatitis C Virus (HCV)
# Conditions: Huh7.5.1 HCVcc-Cre (HCVcc is cell-culture hepatitis C virus) infection, luciferase reporter, 44 h; series mostly up to 41.8 µM
# Method in brief: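 1,000 cells/well; 4 h culture; + compound; + HCVcc-Cre (~0.5 moi); 44 h; luciferase substrate, RT 15 min; read 15 sec.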
# Potency means the concentration at half of the fitted maximal effect; tags describe the fitted curve by direction and shape.
row,Structure (SMILES),Potency
1,COc1ccc(-c2cc([C@H]3[C@H]4C=CC[C@@H](C)[C@@H]4C(=O)N3Cc3ccccc3)ccc2F)cc1,"inconclusive [inhibitor, single point]"
2,CC1CCCN(C(=O)c2ccc(OC3CCN(CCc4ccccc4)CC3)cc2)C1 (configuration not stated),"inconclusive [inhibitor, single point]"
3,COC(=O)c1c(-c2ccc(OC)cc2)oc2ccc(-c3cc(OC)c(OC)c(OC)c3)cc12,"inconclusive [inhibitor, single point]"
4,CCOC(=O)c1cn(-c2c(Cl)cccc2Cl)c2cc(Cl)c([N+](=O)[O-])cc2c1=O,"inconclusive [inhibitor, partial curve]"
5,COc1ccc(C(=O)Nc2nnc(Cc3cccs3)s2)cc1OC,"inconclusive [inhibitor, single point]"
6,CC(C)n1nccc1N(Cc1ccc(C#N)cc1)S(=O)(=O)c1ccccc1,inactive
7,C=CCn1c(SCC(=O)/C(C#N)=C(\C)N)nc2sc(C)c(C)c2c1=O,"inconclusive [inhibitor, single point]"
8,CC1(C)Cc2ccccc2-c2nnc(-c3ccccc3)n21,"inconclusive [inhibitor, partial curve]"
9,CCc1nnc(NC(=O)c2cccc(C(=O)Nc3nnc(CC)s3)n2)s1,active: 1.12 µM
10,Cc1ccc(-c2ccc(/C=N/N3C(=O)C4C5C=CC(CC5)C4C3=O)o2)c([N+](=O)[O-])c1 (configuration not stated),"inconclusive [inhibitor, single point]"
11,CCOc1cc(CNCCc2ccc(S(N)(=O)=O)cc2)ccc1OCc1ccc(Cl)cc1,"inconclusive [inhibitor, single point]"
12,Cc1cc(NC(=O)CS(=O)(=O)c2ccc(Cl)cc2)no1,inactive
13,CCOc1ccc(N(CC(=O)NC2CCCC2)C(=O)CCCC(=O)Nc2ccccn2)cc1,"inconclusive [inhibitor, partial curve, poor fit]"
14,Cc1ccc(C)c(OC(C)C(=O)Nc2ccc(S(=O)(=O)Nc3nccs3)cc2)c1 (configuration not stated),"inconclusive [inhibitor, single point]"
15,COc1cc(OC)cc(-c2c(C#Cc3ccsc3)c3cc(-c4ccc(C(N)=O)cc4)ccc3n2C)c1,"inconclusive [inhibitor, partial curve]"
16,COc1ccc(CNC(=O)C(C)N(Cc2ccccc2OC)C(=O)c2snc(C(N)=O)c2N)cc1 (configuration not stated),active: 10 µM
17,COc1cc(OC)cc(OCC(O)Cn2cnc(-c3ccccc3)c2)c1 (configuration not stated),"inconclusive [inhibitor, partial curve]"
18,CCOC(=O)c1[nH]nc(-c2cc(CC)c(O)cc2O)c1-c1cscn1,"inconclusive [inhibitor, single point]"
19,CCCc1sc(N/N=C/c2ccccn2)nc1-c1ccc(F)cc1,"inconclusive [inhibitor, full curve]"
20,COc1nc(Nc2nc3ccccc3c(=O)[nH]2)nc2ccc(C)cc12,active: 3.16 µM
21,CCCN1CCN(CCCNC(=O)c2cc3c(=O)[nH]c4ccc(C)cc4c3s2)CC1,"inconclusive [inhibitor, single point]"

row,Structure (SMILES),Potency
1,COc1cccc2c1OCC(CN1CCN(Cc3ccccc3)C(CCO)C1)=C2 (configuration not stated),"inconclusive [inhibitor, single point]"
2,COc1ccc(C(=O)N2CCC(C(=O)c3ccc(F)cc3)CC2)cc1,inactive
3,CC1CCCCC12NC(=O)N(CC(=O)OCc1ccccc1Cl)C2=O (configuration not stated),inactive
4,COc1ccc(-c2csc(NC(=O)CN3C(=O)C4CC=CCC4C3=O)n2)cc1OC (configuration not stated),"inconclusive [inhibitor, partial curve]"
5,CC(=O)c1ccc2c(ccc3ccccc32)c1,"inconclusive [inhibitor, single point]"
6,Cn1c(=O)[nH]c(=O)c2c1nc(Sc1nc3ccccc3s1)n2Cc1ccccc1,"inconclusive [inhibitor, single point]"
7,CCOC(=O)[C@H]1[C@H]2COc3ccc(Br)cc3[C@H]2N2C(=O)CN(Cc3ccc(Cl)cc3)C(=O)[C@@]12C,"inconclusive [inhibitor, single point]"
8,Cc1ccc(N/C=C/C(=O)c2ccco2)c(O)c1,inactive
9,COc1c(O)cc2c(c1O)C1OC(CO)C(O)C(O)C1OC2=O (configuration not stated),inactive
10,O=C(Cc1ccc(Cl)cc1)Oc1cccc2cccnc12,"inconclusive [inhibitor, single point]"
11,CC(C)[C@H](NC(=O)N1CC(=O)Nc2ccccc21)C(=O)N[C@H](Cc1ccccc1)C(=O)O,inactive
12,O=C(c1cc(-c2cccc(Cl)c2)nc2ccccc12)N1CCN(c2ccccn2)CC1,"inconclusive [inhibitor, single point]"
13,Cc1cc(NC(=O)CCN2C(=O)C3C4CCC(C4)C3C2=O)c(C)cc1Br (configuration not stated),"inconclusive [inhibitor, single point]"
14,Cc1ccccc1-n1c(SCC(=O)c2cc(C)n(C)c2C)nnc1-c1cccnc1,"inconclusive [inhibitor, single point]"
15,Cc1cc(C)c(NC(=O)CCN2CCN(Cc3ccccc3)CC2)c(C)c1,"inconclusive [inhibitor, single point]"
16,Cc1cccc(/C=C/c2nc3ccccc3c(=O)n2Cc2ccccc2)c1,"inconclusive [inhibitor, single point]"
17,CCCn1c(=S)[nH]c2cc(C(=O)N3CCN(c4ccccc4OC)CC3)ccc2c1=O,"inconclusive [inhibitor, single point]"
18,COc1ccc(NC(=O)CN(C)C(=O)c2cc(C)on2)cc1,inactive
19,COc1ccc(/C=N/Nc2nc(-c3cccc(S(=O)(=O)N4CCCC4)c3)cs2)c(OC)c1,active: 3.98 µM
20,COC(=O)Nc1cc([N+](=O)[O-])ccc1OC,"inconclusive [inhibitor, single point]"
21,C/C(=N\NC(=O)c1ccccc1Cl)c1ccccn1,"inconclusive [inhibitor, full curve]"
